Laboratory results taken from PMC4336329 (PLoS ONE, 2015).
In all, about 310,000 compounds went through this assay and about 14,000 (4.5%) showed an effect of 50% or more. The effect is printed as a negative number. Some of the results follow.

Biological target: human ether-à-go-go-related gene (hERG) potassium channel (human, UniProt Q12809)
Experiment: primary screen, population patch clamp on CHO cells stably expressing hERG
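Further: peak tail current of the secondary pulse compared with the same well before compound.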

human ether-à-go-go-related gene (hERG) potassium channel, sequence (Q12809 whole entry, looked up): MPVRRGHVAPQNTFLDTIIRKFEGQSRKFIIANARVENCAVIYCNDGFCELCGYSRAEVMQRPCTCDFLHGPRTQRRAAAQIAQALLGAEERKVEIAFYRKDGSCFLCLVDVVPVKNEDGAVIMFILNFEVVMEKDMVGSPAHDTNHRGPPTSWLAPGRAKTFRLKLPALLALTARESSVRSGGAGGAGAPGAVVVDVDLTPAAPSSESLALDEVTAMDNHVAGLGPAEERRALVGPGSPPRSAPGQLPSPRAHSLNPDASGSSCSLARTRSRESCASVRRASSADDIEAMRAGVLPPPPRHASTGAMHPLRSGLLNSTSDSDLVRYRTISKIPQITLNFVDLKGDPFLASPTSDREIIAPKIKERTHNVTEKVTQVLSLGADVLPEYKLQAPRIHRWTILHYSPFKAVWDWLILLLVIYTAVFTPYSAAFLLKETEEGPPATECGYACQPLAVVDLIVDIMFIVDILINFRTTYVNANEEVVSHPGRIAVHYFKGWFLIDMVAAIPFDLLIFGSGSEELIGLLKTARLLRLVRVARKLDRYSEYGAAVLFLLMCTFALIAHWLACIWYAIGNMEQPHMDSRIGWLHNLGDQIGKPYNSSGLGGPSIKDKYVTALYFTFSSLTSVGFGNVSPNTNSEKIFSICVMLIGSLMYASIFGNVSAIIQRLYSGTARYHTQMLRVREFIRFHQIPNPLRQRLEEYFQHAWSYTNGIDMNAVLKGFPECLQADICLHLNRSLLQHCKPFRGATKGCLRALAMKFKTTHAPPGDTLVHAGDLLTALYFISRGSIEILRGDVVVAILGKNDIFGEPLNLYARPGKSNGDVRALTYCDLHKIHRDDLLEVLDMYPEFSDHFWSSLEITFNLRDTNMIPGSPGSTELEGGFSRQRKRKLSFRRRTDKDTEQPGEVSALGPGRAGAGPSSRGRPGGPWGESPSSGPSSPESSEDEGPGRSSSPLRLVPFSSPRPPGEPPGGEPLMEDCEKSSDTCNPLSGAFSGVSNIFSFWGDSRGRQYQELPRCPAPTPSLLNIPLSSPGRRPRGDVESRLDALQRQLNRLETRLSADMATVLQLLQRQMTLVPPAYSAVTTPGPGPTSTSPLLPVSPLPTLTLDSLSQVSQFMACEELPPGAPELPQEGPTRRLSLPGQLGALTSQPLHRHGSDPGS

Compound	hERG current change (%, negative = inhibition) at 10uM [%]
Cc1nn(C)c(C(=O)N2CCN(C(=O)c3ccco3)CC2)c1[N+](=O)[O-]	8.95
Nc1nonc1-n1nnc(C(=O)N/N=C/c2ccccc2F)c1-c1cccs1	14.8
CC(C)Cn1c(N)c(C(=O)COC(=O)CN2C(=O)C3CC=CCC3C2=O)c(=O)n(C)c1=O (centres unmarked)	-4.23
CCCCOC(=O)Nc1nnc(CCOCC)s1	0.737
Cn1c([O-])c(Cc2ccc(OCc3ccccc3)cc2)c(=O)n(C)c1=O.[NH4+]	13.4
O=C1NC(=O)N(c2cccc(Br)c2)C(=O)/C1=C/c1ccsc1	15.3
COc1ccc(CNC(=O)CN2c3ccccc3S(=O)(=O)c3ccccc32)cc1	-4.56
Cc1cc(/C=C2\C(=O)NC(=O)N(c3ccccc3)C2=O)c(C)n1-c1ccc(C(=O)O)c(Cl)c1	27.9
CCOC(=O)CN1C(=O)S/C(=C\c2ccc(-c3cccc(C(=O)O)c3C)o2)C1=O	1.47
COc1ccccc1C(=O)Nn1cnnc1	13.6
Cc1nn2c(N3CCN(C)CC3)cc(C(C)(C)C)nc2c1-c1ccccc1	6.34
COc1ccc(-c2[nH]ncc2CN(C)Cc2cccnc2)c(OC)c1	6.28
c1ccc(-c2ccc(-c3nc(-c4cccnc4)no3)cc2)cc1	15.7
O=C(O)CCC(=O)N1N=C(c2ccc(Br)cc2)CC1c1cccs1 (centres unmarked)	14.8
Cc1nc2ccccn2c1-c1csc(Nc2cccc(C(=O)O)c2)n1	12.9
C#CC[N+]1(CC#Cc2ccccc2)CCCC1.[I-]	-1.53
CC(=O)Nc1cc2c(cc1C(=O)c1ccc(C)cc1)OCCO2	5.77
CCCCOc1ccc(C(=O)NCC(=O)NCc2ccncc2)cc1	-13.6
Cc1ccc(-n2cnc3sc(C)c(C)c3c2=O)cc1	7.98
c1nnc(-c2ccc3c(c2)OCO3)o1	18.5
CCc1ccccc1NC(=O)Cc1ccc(-n2cccc2)cc1	-2.46
CN(C)C(CNC1CC(C)(C)NC(C)(C)C1)c1cccc(F)c1 (centres unmarked)	8.46
O=C(O)c1ccc(NCc2ccc3c(c2)OCO3)cc1	7.97

Compound	hERG current change (%, negative = inhibition) at 10uM [%]
Cc1ccccc1NC(=O)/C(C#N)=C\c1cccnc1	-16.3
COC(=O)C(Cc1c[nH]c2ccccc12)NC(=O)CNC(C)=O (centres unmarked)	9.15
C#CCC(NC(=O)c1ccc(C(F)(F)F)cc1)C(=O)NCCC (centres unmarked)	12.5
COc1ccc(C(=O)/C=C/c2ccccc2C(F)(F)F)cc1	11.6
O=C(Nc1ccc(Cl)cc1)c1ccc(CN2CCc3ccccc3C2)cc1	13.7
CC1(C)Cc2c(c(N3CCOCC3)nc3sc4c(NCC5CCCO5)nnnc4c23)CS1 (centres unmarked)	-6.71
COc1cccc(-n2c(O)c(C=NCCN3CCOCC3)c(=O)[nH]c2=O)c1	6.62
CN(C)c1ccnc(Nc2ccc(F)cc2)c1C#N	23.4
O=C(OCC(=O)N1CCN(C(=O)c2ccco2)CC1)c1sc2cc(F)ccc2c1Cl	-4.52
CCn1ncc(CN2CCC(Oc3ccc(C(=O)N4CCCC4)cc3)CC2)c1C	-1.92
CCOC(=O)c1[nH]ncc1CN1CCc2ccc(NC(=O)C3CCCO3)cc2C1 (centres unmarked)	5.01
Cc1[nH]n(-c2ccccc2)c(=O)c1/C=N/N1CCOCC1	5.34
CC(C)=CC/C=C1\CCC(C(=O)O)C(C(=O)O)C1 (centres unmarked)	15.5
CCOC(=O)CNC(=O)CSc1nc2c(C)cccc2cc1CC	11.9
COc1ccc(-c2cc3nc(-c4ccccc4)cc(N4CCCC(O)C4)n3n2)cc1 (centres unmarked)	11.8
Cc1cc(O)c(CN2CCN(S(=O)(=O)c3cccs3)CC2)cc1C(C)C	-6.75
COc1ccc(C(=O)Nc2ccc(Nc3ccccc3)cc2)cc1Br	-2.07
COC(=O)c1c(C(=O)OC)c2n(c1C)CCC2	0.0802
N#Cc1c(-c2ccc(F)cc2)nc2n(c1=O)CCS2	-1.12
CC(Oc1ccc(Br)cc1)c1nc2c3ccccc3nc(=S)n2[nH]1 (centres unmarked)	18.5
CCN(CC)c1ccc2cc(C#N)c(=O)oc2c1	13.4
C[C@@H]1NC(=O)/C(=C\c2ccccc2Cl)NC1=O	10.5
CCOC(=O)c1c(S(=O)(=O)NC2CCN(C(=O)OCC)CC2)c(C)n(C)c1C	-0.507

Compound	hERG current change (%, negative = inhibition) at 10uM [%]
C=CCC1(CC=C)CCCN1C(=O)c1cc(COc2ccc(C)nc2)on1	-15.5
Cc1ccc(-c2nnc(NCc3nc4ccccc4[nH]3)c3ccccc23)cc1S(=O)(=O)N(C)C	-26.3
O=C(CCC(=O)N1CCN(c2cccc(Cl)c2)CC1)N1CCN(c2ccccc2)CC1	-55.6
O=C(NC(c1ccccc1)c1ccccc1)c1ccc(=O)[nH]n1	-7.45
CCc1ccc(NC(=O)CCc2nnc3ccc(N4CCC5(CC4)OCCO5)nn23)cc1	-24.9
CCN(CC)CCCNC(=S)N(Cc1cccnc1)Cc1cc2cccc(C)c2[nH]c1=O	-1.68
COC(=O)CSc1nc(N2CCOCC2)c2c(c1C#N)CC(C)(C)OC2	1.51
Cc1[nH]c(C)c(S(=O)(=O)N2CCN(c3ccccc3)CC2)c1C(=O)N1CCCC1	-10.4
O=S(=O)(c1ccc(Cl)cc1)N1CN2CCN(C2)C1	11.3
Cn1c(=NC(=O)COc2ccccc2)sc2cc(F)cc(F)c21	6.83
Cc1cccn2c(=O)c(C=C(C#N)C#N)c(N3CCN(c4ccccc4)CC3)nc12	-7.68
CC(=O)NN1C(=O)/C(=C/c2ccc(C(C)C)cc2)SC1=S	-2
Brc1ccc(CN2CCNCC2)s1	-4.59
CSc1ccc(C(C(C(=O)c2cccs2)N2CCOCC2)N2CCOCC2)cc1 (centres unmarked)	-3.73
COc1ccc(N2CCN(C(=O)c3cn(CC4CCCCC4)nn3)CC2)cc1	-14.3
CN(C)c1ccccc1C(=O)N1CCCC(C(=O)c2ccc3ccccc3c2)C1 (centres unmarked)	6.58
CN(CCC#N)C(=O)c1ccc(CNS(=O)(=O)c2ccc(F)cc2)cc1	12.6
CSCCC1C(C#N)=C(N)Oc2n[nH]c(-c3cccs3)c21 (centres unmarked)	-9.57
Cc1ccc(N(CC(=O)Nc2ccc(C)cn2)S(=O)(=O)c2c(C)nn(C)c2C)cc1	-22.7
C[C@@H](NC(=O)c1nc[nH]c1C(=O)NCC(=O)OC(C)(C)C)c1ccccc1	-0.16
CCN(CC)CCNCc1cc(Br)ccc1OCC(=O)NCc1ccccc1.Cl	-83.2
Cc1ccc(OCC(=O)NCCNC(=O)c2ccco2)cc1	9.1
CCN1CNC(=S)N(c2ccccc2OC)C1	16

Compound	hERG current change (%, negative = inhibition) at 10uM [%]
C/C(=N\NC(=O)c1cc(-c2ccc(C)s2)[nH]n1)c1ccco1	-7.34
Cc1cccc(OCC(=O)Nc2ccc(N3CCN(C(=O)c4ccccc4)CC3)cc2)c1	-43.3
CCO[C@@H]1OC(C(=O)N2CCN(Cc3ccc4c(c3)OCO4)CC2)=C[C@H](c2ccc(C(F)(F)F)cc2)[C@H]1CCCO	-13.8
Cc1cc(C)c(-n2nnnc2SC(C)C)c(C)c1	-2.54
Nn1c(N2CCCCC2)nc2ccccc21	6.16
COCc1ccc(CN2CCCC(C(=O)Nc3ccc(-c4cccc(OC)c4)cc3)C2)o1 (centres unmarked)	-0.711
CCn1c(O)c(N=NC(=O)C(O)c2ccccc2)c2ccccc21 (centres unmarked)	1.23
COc1ccccc1CNC(=O)c1cccc(S(=O)(=O)N2CCN(C)CC2)c1	-8.01
Cc1cccc(NC(=O)Cc2ccc(NC3=NC4CS(=O)(=O)CC4S3)cc2)c1 (centres unmarked)	2.28
C(=C\c1ccccc1)/CNCC1CCCO1.Cl (centres unmarked)	7.95
Cc1ccc(NC(=O)c2sc(Cl)nc2-c2ccccc2)cc1	18.2
O=C(N/N=C/c1cc([N+](=O)[O-])c(N2CCOCC2)cc1N1CCOCC1)c1cccnc1	-22.4
COc1ccc([N+](=O)[O-])cc1N(CC(O)Cn1nnc2ccccc21)S(=O)(=O)c1ccc(C)cc1 (centres unmarked)	-29.4
COc1ccc(CC(NC(C)=O)C(=O)NC2CCN(c3ncccc3[N+](=O)[O-])CC2)cc1 (centres unmarked)	4.65
O=c1oc2c(CN3CCOCC3)c(O)ccc2c2c1CCCC2	-4.32
S=C(NCC1CC1)N/N=C/c1ccccc1Cl	11.5
CCOc1ccc2nc(NC(=O)Cn3[nH]c(=O)c4ccccc4c3=O)sc2c1	-5.33
CCC(C)NC(=O)Cn1nc([N+](=O)[O-])c(Cl)c1C (centres unmarked)	-2.4
O=C(CNC(=O)c1ccco1)NCC(=O)OCc1cccc(C(=O)Oc2ccccc2)c1	-3.88
Cc1ccc(/C=C2\SC(=S)N(CCC(=O)N3CCOCC3)C2=O)cc1	12.1
